We go through 14 molecules from PMC12136788.

First the molecules themselves.
T1: UNK ZnF1-3 (human, UniProt Q9C0B0 31-174)
T1 sequence: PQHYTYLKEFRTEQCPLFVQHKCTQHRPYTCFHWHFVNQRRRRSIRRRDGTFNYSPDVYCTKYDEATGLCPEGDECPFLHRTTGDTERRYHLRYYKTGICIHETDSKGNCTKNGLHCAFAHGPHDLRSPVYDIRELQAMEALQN

B1: 137519644_137519764_1055_CDS_ENSG00000027697_ENST00000367739|human|control|control (ssRNA)
RNA: GGGAGUUCUACAGUCCGACGAUCAACUGUUGCUGGAGACAACGGCUCUUCACAGACCACCUCCUUUUCUAAGGAAAAUGGCUGGUAUGACGUGAUGAGUGAUACAUAUUUUGAUUCAGGUUUUGUCUCUAAAGUAGCACUUCUCAACAGAGGAUUGAGCAUCA
B2: 40646300_40646420_476_CDS_ENSMUSG00000019831_ENSMUST00000105509|mouse|control|control (ssRNA)
RNA: GGGAGUUCUACAGUCCGACGAUCUUCCUCCUUAGGAUCAAGCUGUGUGACACUAACAGACAAUCGGUCCACGCGCUCUUGCAACGAGUUAACUCUGAAGGAAAAACUGUGUGCUUCAUUGAAUAAUUCUCCAAAUAUGUCUUCCAACAGAGGAUUGAGCAUCA
B3: chr7:106826281:106826282:+_ENSG00000105856_ENST00000468410|hu_hu|motif|central (ssRNA)
RNA: GGGAGUUCUACAGUCCGACGAUCUUCACUCUUCGAAGAAGAGGACACUGGUGGAGGGCGUGCAUAGGAAUGUAAACUUUUGCGGGUGGCUAUGAUGUGUACAGGAGAUGAUCUAUUGUAAAAUGAGCACUGCAUCAGUGGACUCAACAGAGGAUUGAGCAUCA
B4: 44870228_44879938_508_3pUTR_ENSG00000147050_ENST00000377967|human|control|control (ssRNA)
RNA: GGGAGUUCUACAGUCCGACGAUCAUAAGCCCAAGUCGUAAAUGAAUUUCCUUGGCUCGACAAAAGCUGGGAUCAACAUAAAGCACCUCCUGAAAUGCUUUAAUUGCCCACUGAAAUGCAUUAUAAUGGAAGUAGACCAAACCACAACAGAGGAUUGAGCAUCA
B5: chr3:33863462:33863463:+_ENSG00000170248_ENST00000307296|hu_mus|FALSE|FALSE (ssRNA)
RNA: GGGAGUUCUACAGUCCGACGAUCUGCAAUCUGGCUAGCUAAGGCAGCACAAUUGAACAACACACAGCUCUUUUCAUAUCCUAAGCUUGCAAGAGCCAAUUUUACAGACCCUCCAAAAAGGGAACCUUUAUCAAAAGCAUCCUUCAACAGAGGAUUGAGCAUCA
B6: 139258311_139258431_300_CDS_ENSG00000114115_ENST00000232219|human|control|control (ssRNA)
RNA: GGGAGUUCUACAGUCCGACGAUCCAGGUACUCCUCGAAAUUCUCGUUGACCAACAUCUUCCAGUACCCAGUGAAGUCGACUGGCAUUUCGGGGAGUGACUGGAGCCAGUUGGCCACAAGCGGGCGGGACGGCUGGAGACUGCCCAACAGAGGAUUGAGCAUCA
B7: chrX:131284163:131284164:-_ENSMUSG00000050394_ENSMUST00000052431|mus_mus|FALSE|FALSE (ssRNA)
RNA: GGGAGUUCUACAGUCCGACGAUCGGGACUCCUGUUUCCAACCACUGAUAGGCUGGCCAGAUGUUUACUGAUAUUGGGGCUAAGGGAAAAGCCAGCAUUUAUGUUCUUCGUGAACCUUUUCUUUCUUUGAGUGGAAACACACUUCAACAGAGGAUUGAGCAUCA
B8: chr7:151048522:151048523:+_ENSG00000013374_ENST00000566856|hu_mus|hu_hu_hu_mus_True|88_88 (ssRNA)
RNA: GGGAGUUCUACAGUCCGACGAUCCUGUUUCUUAUUUAUUACGAUCUUGAUAUAAUUUUCUUGAAAUCCGAAAGUUUCAGCUAUUUGACACCUCAGGUCUCUACCAGUGACAUGCAAGCGGGUCUCCAACAAGCUUUUCUUAUCCAACAGAGGAUUGAGCAUCA
B9: 117003776_117003896_1837_3pUTR_ENSMUSG00000027351_ENSMUST00000028829|mouse|control|control (ssRNA)
RNA: GGGAGUUCUACAGUCCGACGAUCCUCUGUGAUCUGUCCCAGAACAUGCCAUGCACUCAGGGAAACAGGCACGGCUAGCAUCUGUAAAUCACAAGAACUGAUGAGUUCUGCUUCCUCCACGCAUGGCCCCAAUGAUACCGGCAACAACAGAGGAUUGAGCAUCA
B10: chr11:74493064:74493065:-_ENSMUSG00000020745_ENSMUST00000021091|mus_mus|FALSE|FALSE (ssRNA)
RNA: GGGAGUUCUACAGUCCGACGAUCCUUGUUCUUAUAAUCCCAUACACGGAGGGUCUUGUCAUCAGCACAACUCAAAAUAAACUUCCCCCCAGAAUGGAACAGAACUCCACGUACCCAGUUAUCAUGACCCACAAGAGUCAUAAGCAACAGAGGAUUGAGCAUCA
B11: chr10:33190432:33190433:-_ENSG00000150093_ENST00000302278|hu_mus|hu_hu_hu_mus_True|8_38 (ssRNA)
RNA: GGGAGUUCUACAGUCCGACGAUCUACAUUUUCCAAACCUGCAUGUGAAUAAAACCCUGGCCACAGAGCCCCAAAACUACCCUACUGUGACUAAGAUAAUUGCUACUUGAGCUUGGUGUUGCAAAAUUUUGCACGGGAGGAUUCCAACAGAGGAUUGAGCAUCA
B12: chr3:32335226:32335227:+_ENSMUSG00000027665_ENSMUST00000108243|mus_mus|FALSE|FALSE (ssRNA)
RNA: GGGAGUUCUACAGUCCGACGAUCGGCCUCUCUGAACAGUUCAUGUUUGAUGGUGACGAGUGUGGCCUCACGGAGGCAUUCUAAAGUCACUAUCAUUCCAUUGGGGAGUAAACAUUCCACUAGGAUUCGUGGGGGCAUCAAGUGCAACAGAGGAUUGAGCAUCA
B13: chr1:39494564:39494565:+_ENSG00000168653_ENST00000372967|hu_hu|hu_hu_hu_mus_True|18_28 (ssRNA)
RNA: GGGAGUUCUACAGUCCGACGAUCAUGCAUUCGCCUCAUCGUUUUGUACCGAAGCAAGCACUCUUCGAAGUCAUCGAACUCUAUCUUGCACUCCUUUUUCGCCCGGGUAUAACCGAUUCCAUGUGCACACUCUAUCCACUCUUUCAACAGAGGAUUGAGCAUCA
B14: chr1:130485734:130485735:-_ENSMUSG00000045382_ENSMUST00000052172|mus_mus|mus_mus_mus_hu_False|38_58 (ssRNA)
RNA: GGGAGUUCUACAGUCCGACGAUCGAUGAAGGAGUCGAUGCUGAUCCCAAUGUAGUAAGGCAGCCAACAGGCGAAGAAAGCUAGGAUGAGGAUGACUGUCGUCUUGAGGGCCUUGCGCUUCUGGUGGCCCUUGGAGUGUGACAGCAACAGAGGAUUGAGCAUCA

This is one part of the list.

This experiment addresses T1, UNK ZnF1-3. Kind of experiment: nsRBNS (natural sequence RNA bind-n-seq); RBNS binding buffer (assumed for nsRBNS): 25 mM Tris pH 7.5, 150 mM KCl, 3 mM MgCl2, 0.01% Triton X-100, 500 ug/ml BSA, 20 U/ml SUPERase-In, 4 C; UNK is unkempt and MSI1 is Musashi-1; names of the RNAs are library labels; protein concentration not given here; high values mean tight binding.
Consider B1, for which the binding signal was found to be 0.554 enrichment R.

B2 registered a binding signal of 1.08 enrichment R.

In the case of B3, the binding signal amounted to 1.19 enrichment R.

In the case of B4, the binding signal turned out to be 1.05 enrichment R.

As to B5, the binding signal is 1.02 enrichment R.

Take B6: the binding signal turned out to be 0.82 enrichment R.

Regarding B7, the binding signal was determined as 0.729 enrichment R.

For B8, the binding signal is 0.998 enrichment R.

The molecule B9 had a binding signal of 0.696 enrichment R.

B10 displayed a binding signal of 1.05 enrichment R.

Turning to B11, the binding signal came out at 1.2 enrichment R.

B12 yielded a binding signal of 1.15 enrichment R.

Turning to B13, the binding signal was 0.674 enrichment R.

Molecule B14 showed a binding signal of 1.12 enrichment R.
